Results on 102 sequences are retold here after a collection of fitness landscapes (doi:10.1038/s41467-024-54723-y).

Over roughly 18,000 sequences, “TetR repression strength (sort-seq, GFP reporter)” has its median near 0.23; the highest 2% begin near 0.68. This is one part of the list.

UniProt P04483, sequence (P04483 whole entry): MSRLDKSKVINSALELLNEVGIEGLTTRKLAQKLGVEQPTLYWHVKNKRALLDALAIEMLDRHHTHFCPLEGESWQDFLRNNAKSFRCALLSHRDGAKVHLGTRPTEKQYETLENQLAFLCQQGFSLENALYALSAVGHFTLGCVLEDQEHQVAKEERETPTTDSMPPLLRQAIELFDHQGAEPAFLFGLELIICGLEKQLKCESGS

For the assay, the target named is TetR (class B, Tn10) (UniProt P04483). The experiment in a line: TetR repression strength (sort-seq, GFP reporter) (relative to tetO2 = 1); higher = stronger repression. The note with it: E. coli. The essentials:
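Three independent transformations of E. coli SIG10-MAX were made with a low-copy plasmid library randomizing eight operator positions between a constitutive promoter and sfGFP, with constitutive TetR. Following 5 h at 37 °C in LB plus 50 µg/mL chloramphenicol, 10^6 cells went through FACS into 13 fluorescence bins, and each bin was sequenced by Illumina. Repression strength was defined as the top bin index plus one minus the read-weighted mean bin, divided by the unaltered operator's value. Averages included only members reaching ≥30 reads in all replicates with a CV ≤0.5.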
The sequence TCCCAAGTAGTCGTCGAGA displayed a TetR repression strength of 0.157. Sequence TCCCCTAAAGTTAGGGAGA returned a TetR repression strength of 0.199.

TCCCTATAAGTGGTTGAGA came in with a TetR repression strength of 0.605. The result for TCCCCTGGAGTTGGCGAGA reads 0.304; that for TCCCACTCAGTGCCGGAGA, 0.203; that for TCCCGACGAGTCGTGGAGA, 0.29. The result for TCCCTTCCAGTATCAGAGA reads 0.0836. The result for TCCCAATCAGTGTTCGAGA reads 0.424; that for TCCCTGCAAGTTTCGGAGA, 0.0543; that for TCCCAGTTAGTGTTGGAGA, 0.259. Consider TCCCAAGGAGTACAGGAGA, for which the TetR repression strength came to 0.213. The result for TCCCCGGTAGTATGGGAGA reads 0.0909; that for TCCCTTGTAGTGTGAGAGA, 0.0522; that for TCCCATAGAGTCACGGAGA, 0.119. TCCCTGGAAGTGAACGAGA showed a TetR repression strength of 0.39. Turning to TCCCCGAAAGTGTATGAGA, the TetR repression strength came out at 0.289. The same measure for TCCCGGGGAGTAGTAGAGA: 0.358.

For the sequence TCCCGTTAAGTCGGGGAGA, the TetR repression strength amounted to 0.361. The result for TCCCCATCAGTAACTGAGA reads 0.122; that for TCCCGTTGAGTATTTGAGA, 0.329; that for TCCCGTTTAGTTAGAGAGA, 0.227. The result for TCCCGTGGAGTGATGGAGA reads 0.157.

In turn, TCCCCGTGAGTTGGGGAGA showed a TetR repression strength of 0.144.

TCCCAACTAGTACTTGAGA came in with a TetR repression strength of 0.416.

TCCCAGTAAGTAGCAGAGA: the TetR repression strength is 0.334. As to TCCCGGCGAGTAGTTGAGA, the TetR repression strength is 0.141. The result for TCCCGGAGAGTCCTAGAGA reads 0.297. The result for TCCCTGCAAGTGGGTGAGA reads 0.167; that for TCCCAAGTAGTTATTGAGA, 0.267.

As to TCCCCTGAAGTTTGTGAGA, the TetR repression strength came to 0.135. TCCCTTCGAGTTGGCGAGA had a TetR repression strength of 0.

In turn, TCCCGGGTAGTGGAGGAGA came in with a TetR repression strength of 0.194. The result for TCCCCTAGAGTTCCGGAGA reads 0.164; that for TCCCGTAGAGTGGCTGAGA, 0.256; that for TCCCTTCAAGTCGAAGAGA, 0.193. The same measure for TCCCATCAAGTTAGAGAGA: 0.246; for TCCCGTTAAGTAGCAGAGA: 0.18; for TCCCATGGAGTGACGGAGA: 0.128. The result for TCCCCGGGAGTGGATGAGA reads 0.195; that for TCCCGTCTAGTTGGCGAGA, 0.247. Regarding TCCCTAGAAGTTGTCGAGA, the TetR repression strength was found to be 0.025. TCCCGAACAGTTGTTGAGA yielded a TetR repression strength of 0.187. The result for TCCCCTCGAGTGGCAGAGA reads 0.147; that for TCCCGACGAGTCGACGAGA, 0.178; that for TCCCGAGTAGTAGCTGAGA, 0.222. The sequence TCCCCCAAAGTCCAAGAGA returned a TetR repression strength of 0.624. TCCCAGCGAGTGAGGGAGA came in with a TetR repression strength of 0.388. The result for TCCCGGCCAGTAAGTGAGA reads 0.0781; that for TCCCGGTCAGTGCTTGAGA, 0.35; that for TCCCCCTCAGTGGGCGAGA, 0.168. The same measure for TCCCAGGGAGTAAGGGAGA: 0.264; for TCCCAAGCAGTGTCTGAGA: 0.311. The same measure for TCCCCTAGAGTGATTGAGA: 0.186. Sequence TCCCTGCAAGTGCATGAGA showed a TetR repression strength of 0.253. In the case of TCCCATCTAGTGGTGGAGA, the TetR repression strength came to 0.22. The result for TCCCAGTTAGTGCGCGAGA reads 0.366; that for TCCCCGCAAGTGCTAGAGA, 0.224. TCCCTTAAAGTTATAGAGA returned a TetR repression strength of 0.137. TCCCACTGAGTGTGGGAGA gave a TetR repression strength of 0.189. The result for TCCCTAGTAGTGCTTGAGA reads 0.594. The result for TCCCCAGCAGTTGGAGAGA reads 0.256. Regarding TCCCGAGCAGTAGGAGAGA, the TetR repression strength was found to be 0.309. TCCCCTGTAGTCGGGGAGA returned a TetR repression strength of 0.858. Sequence TCCCGATCAGTGCTAGAGA yielded a TetR repression strength of 0.657. The sequence TCCCTGGGAGTCGCTGAGA displayed a TetR repression strength of 0.413. The same measure for TCCCGAGAAGTTTCAGAGA: 0.0247. In the case of TCCCACCGAGTGGTGGAGA, the TetR repression strength is 0.203. Sequence TCCCGAGAAGTCGCAGAGA gave a TetR repression strength of 0. The result for TCCCTTCGAGTGTTGGAGA reads 0.298. As for TCCCCAGGAGTTGGTGAGA, the TetR repression strength was 0.0803. The result for TCCCGCTAAGTATTGGAGA reads 0.138; that for TCCCAGTCAGTTAGTGAGA, 0.411.

TCCCAAGGAGTTCGTGAGA gave a TetR repression strength of 0.104. The same measure for TCCCGGCTAGTCGAGGAGA: 0.232. The same measure for TCCCCTTAAGTTAATGAGA: 0.515. In turn, TCCCGGGTAGTTGTTGAGA yielded a TetR repression strength of 0.204.

TCCCGAAGAGTGGTGGAGA yielded a TetR repression strength of 0.219. The same measure for TCCCGGTCAGTGTGCGAGA: 0.412; for TCCCTGTTAGTGGCAGAGA: 0.1.

In the case of TCCCGTCTAGTGAAAGAGA, the TetR repression strength was determined as 0.347. The result for TCCCAGGAAGTGGGTGAGA reads 0.229.

With TCCCCGCAAGTCCTCGAGA, the TetR repression strength is 0.408. The result for TCCCACAGAGTACGCGAGA reads 0.116.

Turning to TCCCCGCTAGTGATCGAGA, the TetR repression strength was found to be 0.445. TCCCGCCGAGTGGACGAGA came in with a TetR repression strength of 0.514.

TCCCTCCGAGTAAAGGAGA returned a TetR repression strength of 0.288. TCCCGGAAAGTCGTGGAGA: the TetR repression strength amounted to 0.244. The same measure for TCCCAGACAGTGCGAGAGA: 0.219. The result for TCCCCGGAAGTGGCTGAGA reads 0.257; that for TCCCCACTAGTGCGAGAGA, 0.00691; that for TCCCACTCAGTGACGGAGA, 0.269.

On to TCCCCATTAGTGGGAGAGA, for which the TetR repression strength came out at 0.14. The same measure for TCCCTTAAAGTGTGAGAGA: 0.104. The result for TCCCGTAGAGTCTTCGAGA reads 0.289; that for TCCCAGGAAGTGAGCGAGA, 0.21.

On to TCCCGGGTAGTAGGTGAGA, for which the TetR repression strength was determined as 0.155. The sequence TCCCTACAAGTCTACGAGA gave a TetR repression strength of 0.269. The result for TCCCAACGAGTGGCCGAGA reads 0.308; that for TCCCGTGGAGTAGCTGAGA, 0.497; that for TCCCAATAAGTCATCGAGA, 0.4. The same measure for TCCCCGAGAGTGGGTGAGA: 0.0977; for TCCCCAGGAGTCAAGGAGA: 0.177.
